The values that follow come from PubChem BioAssay AID488969 (Vanderbilt High Throughput Screening Facility, 2010).

Structures are written as SMILES. Over roughly 110,000 compounds, “z-score” has its median near -0.1; the highest 2% begin near 2. The list shows a part of the results.

In the assay the target is Metabotropic glutamate receptor 8 (Rattus norvegicus) (UniProt P70579). Description: rat mGluR8 modulators via GIRK flux, primary screen, cell-based, thallium flux, HTS (AID 488969). Conditions: HEK293 rat mGluR8, GIRK (G protein-gated inwardly rectifying potassium channel) thallium flux, FluoZin2; at 10 µM; stronger effect = higher value; submaximal glutamate (EC20) added with thallium.
Sequence of UniProt P70579 (P70579 whole entry, looked up): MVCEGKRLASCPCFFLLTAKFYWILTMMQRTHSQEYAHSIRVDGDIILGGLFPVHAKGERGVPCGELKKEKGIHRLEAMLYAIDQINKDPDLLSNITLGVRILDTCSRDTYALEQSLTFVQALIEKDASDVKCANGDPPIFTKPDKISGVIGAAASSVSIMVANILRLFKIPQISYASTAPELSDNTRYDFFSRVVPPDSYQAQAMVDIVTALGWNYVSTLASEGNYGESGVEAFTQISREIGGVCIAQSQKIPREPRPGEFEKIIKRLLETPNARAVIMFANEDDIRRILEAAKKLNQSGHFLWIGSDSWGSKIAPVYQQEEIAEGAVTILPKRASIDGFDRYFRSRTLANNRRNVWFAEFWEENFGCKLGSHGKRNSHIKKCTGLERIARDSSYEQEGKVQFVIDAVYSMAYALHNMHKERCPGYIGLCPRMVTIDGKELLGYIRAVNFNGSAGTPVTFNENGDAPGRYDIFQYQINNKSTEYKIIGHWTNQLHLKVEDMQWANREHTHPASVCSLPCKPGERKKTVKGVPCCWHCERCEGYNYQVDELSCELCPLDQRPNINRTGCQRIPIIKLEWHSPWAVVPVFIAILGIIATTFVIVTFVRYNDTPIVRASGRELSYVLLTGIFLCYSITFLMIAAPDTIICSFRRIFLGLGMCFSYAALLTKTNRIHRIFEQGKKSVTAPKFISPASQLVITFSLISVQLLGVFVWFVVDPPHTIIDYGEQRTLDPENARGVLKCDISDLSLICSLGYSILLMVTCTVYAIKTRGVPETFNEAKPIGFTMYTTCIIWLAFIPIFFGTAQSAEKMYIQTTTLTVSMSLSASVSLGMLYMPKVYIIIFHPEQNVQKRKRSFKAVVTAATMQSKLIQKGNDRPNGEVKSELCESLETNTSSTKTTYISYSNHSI
For `CCCNC(=O)NS(=O)(=O)c1cnccc1Sc1ccc(Cl)cc1`, the z-score amounted to 0.596. To `CC1=C(C(=O)Nc2cccnc2)C(c2cccnc2)n2ncnc2N1` (configuration not stated) belongs 0.0175; to `O=C(/C=C/c1ccc(S(=O)(=O)N2CCOCC2)cc1)NCc1ccc(Cl)cc1`, -0.216. Regarding `CCOC(=O)c1cccnc1SCC(=O)N(CC)c1cccc(C)c1`, the z-score is -0.316. Turning to `O=C1CCN=C(Nc2ccc(F)cc2)N1Cc1ccccc1`, the z-score is -0.265. To `Cc1cc(C)nc(CC(N)=O)n1` belongs 0.0131. To `COc1ccc(C(=O)Nn2c(SCC(=O)NCC3CCCO3)nc3ccccc3c2=O)cc1` (configuration not stated) belongs 0.00105; to `O=C(Nc1ccc(NC(=O)C2CCCCC2)nc1)c1ccco1`, 0.221. To `COc1ccc(NS(=O)(=O)c2cccc(C(=O)OCC(=O)Nc3cc(C)on3)c2)cc1` belongs 0.186. Take `CCc1ccc(NC(=O)CNC(=O)c2cn(-c3ccccc3OC)c(=O)c3ccccc23)cc1`: the z-score is -1.25. The figure for `CCN(CC)C(=O)c1cc2cc([N+](=O)[O-])ccc2s1` is 0.53; for `Cc1cccc(C)c1OCCSc1n[nH]c(N)n1` it is 0.141; for `CN(CC(=O)NC1CCCCC1)S(=O)(=O)c1cccc2cccnc12` it is -0.35. To `CS(=O)(=O)N(Cc1ccccc1)c1ccc(C(=O)NC2CCCCC2O)cc1` (configuration not stated) belongs 0.252; to `O=C(Nc1ccccc1)c1cnc(-c2ccccc2)nc1-c1ccccc1`, 0.428. For the molecule `O=C(O)C1CCC(=O)N1C1c2ccccc2Oc2ccccc21` (configuration not stated), the z-score is -0.398. The figure for `COc1ccccc1NC(=O)COC(=O)c1ccc2c(c1)nc(C)n2-c1ccccc1` is -0.283; for `COCCn1nnnc1C(c1ccccn1)N1CCN(c2cc(Cl)ccc2C)CC1` (configuration not stated) it is -0.577. The figure for `COc1cccc(NC(=O)CCC(=O)NCc2ccco2)c1` is -0.0294; for `CC(C)c1ccc(NC(=O)COC(=O)c2c[nH]c(=O)[nH]c2=O)cc1` it is -0.346. To `COCCn1c(Cc2ccccc2)nnc1SCc1nc2ccccc2c(=O)[nH]1` belongs -0.0784; to `CCC(C)(C)NC(=O)/C=C/c1cccs1`, -0.306; to `COc1cc(OC)cc(C(=O)N[C@H](C(=O)OCC(=O)NC(C)c2ccccc2)C(C)C)c1` (some centres not stated), -0.103. Turning to `CCCCCCCCCC[n+]1cccc(C(=O)N(CC)CC)c1`, the z-score was -0.257. To `COc1ccc(-c2ccc(C3C(C#N)=C(N)Oc4n[nH]c(C)c43)o2)cc1` (configuration not stated) belongs -0.191. `COc1cccc(-c2nn(C)c3sc(C(=O)N4CCOCC4)cc23)c1`: the z-score was -0.172. The figure for `CC(C)(C)c1ccc(C(=O)Nc2ccc(Cl)cc2)cc1` is -0.752. To `C[n+]1cnn2c1SCC1(COC1)C2` belongs 0.148; to `O=C(NC1c2ccccc2-c2ccccc21)N1CCCCC1`, 0.253.

In the case of `O=C(O)CSc1ncnc2sc3c(c12)CCC3`, the z-score was 0.715.

Regarding `OCC#CCSc1nnc(-c2ccccc2Br)o1`, the z-score is -0.633. The figure for `COc1ccc(C(C)=O)cc1COC(=O)CNC(=O)c1ccc(Cl)cc1` is 0.143.
